Our source for the self-cleavage values is the RNAGym collection of RNA variant scans (doi:10.1093/nar/gkz1192).

The chains are these.
B1: CPEB3 Ribozyme (parent)
chain: UAACAGGGGGCCACAGCAGAAGCGUUCACGUCGCAGCCCCUGUCAGAUUCUGGUGAAUCUGCGAAUUCUGCUGUAUAUCUC

The source gives no read counts; variants with many changes may rest on few reads.

In the series the parent is B1. Description: self-cleavage, relative activity (ratio to wild type); higher = more cleavage; in vitro, sequencing. In short, it runs like this:
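Barcoded CPEB3 ribozyme mutants, produced by rounds of error-prone PCR, self-cleaved while being transcribed with T7 RNA polymerase for 5 hours at 37°C and during a subsequent 15 min DNase I step before EDTA was added. Sequencing of template-switched cDNA on Illumina gave cleaved and total reads, and DNA sequencing assigned barcodes to variants. Each variant's relative activity is its cleaved/total read fraction divided by the unmutated ribozyme's fraction, averaged across three batches. A variant needed a minimum of 5 reads.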
As to UAACAGGGGGCCACAGCGGAAGCGUUCACAUCGCAGCCCCUGUCAGAUACUGGUGAAUCUGCGAAUUCUGCUGUGUAUCUC [A18G G30A U49A A75G], the self-cleavage was 0.17.

On to UAACAGGGGGCCACAGCGGAAGCGUUCACGUCGCAGCCCCUGUCAGAUUCUAGUGAAUCGGCGAAUUCUGCCGUAUAUCUC [A18G G52A U60G U72C], for which the self-cleavage came to 0.37.

Take UAACAGGGGGCCACAGCGGAAGCGUUCACGUCACAGCCCCUGUCAGAUUCUGGUGAAUCUGCGAAUUCCGCUGUAUAUCUC [A18G G33A U69C]: the self-cleavage turned out to be 0.16.

Take UAACAGGGGGCCACAGCGGAAGCGUUCACGUCACAGCCCCUGUCAGAUUCUGGUGACUCUGCGAAUUCUGCUGUAUAUCUC [A18G G33A A57C]: the self-cleavage came to 0.12.

Take UAACAGGGGGCCACAGCGGAAGCAUUCACGUUGCAGCCCCUGUCAGAUUCUGGUGAAUCUGCGAAUUCUGCUGUAAAUCUC [A18G G24A C32U U76A]: the self-cleavage was 0.05.

Turning to UAACAGGGGGCCACAGCGGAAGCGUUCACGUCUCAGCCCCAGUCGGAUUCUGGUGGAUCUGCGAAUUCUGCUGUAUAUCUC [A18G G33U U41A A45G A56G], the self-cleavage is 0.05.

Consider UAACAGGGGGCCACAGCGGAAGCGUUCACCUCGCAGCUCCCGUCAGAUUCUGGUGAAUCUGCGAAUUCUGCAGUAUAUCUC [A18G G30C C38U U41C U72A], for which the self-cleavage was found to be 0.07.

As to UAACAGGGGGCCACAGCGGAACCGUUCACGUCGCAGCCCCUGUCAGAUUCUGGUGAAUCUGCGAAUUCUGCCGUAUAUCUC [A18G G22C U72C], the self-cleavage came to 0.29.

UAACAGGGGGCCACAGCGUAAGCGUUCACGUCGCAGCCCCCGUCGGAUUCAGGUGAAUCUGCGAAUUCUGCUGUAUAUCUC [A18G G19U U41C A45G U51A]: the self-cleavage is 0.23.

With UAACAGGGGGCCACAGCGGAAGCGUUCACGUCGCAGCCCCUGUCAAAUUCUGGUGAAUCUGCGAAUUCUGCUGAAUAUCUC [A18G G46A U74A], the self-cleavage came to 0.29.

On to UAACAGGGGGCCACAGCGGAAGCGUUCACAUCGCAGCCCCUGUCAGUAUCUGGUGAAUCUGCGAAUUCUGCUGUAUAUCUC [A18G G30A A47U U48A], for which the self-cleavage turned out to be 0.18.

UAACAGGGGGCCACAGCGGAAGCGUUCACAUCGCAGCCCCUGUCAGAUUCUGGCGAAUCUGCGAAUCCAGCCGUGUAUCUC [A18G G30A U54C U67C U69A U72C A75G]: the self-cleavage stood at 0.09.

With UAACAGGGGGCCACAGCGUAGGCGUUCACGUCGCAGCCCCUGUCAGGUUCUGGUGAAUCUGCGAAUUCUGCUGUAUAUCUC [A18G G19U A21G A47G], the self-cleavage worked out at 0.1.

Consider UAACAGGGGGCCACAGCGGAAGCGUUCACGUCGCAGCCCCUGUCAAGUUCUGGCGAAUCUGCGAAUUCUGCUGUAUAUCUC [A18G G46A A47G U54C], for which the self-cleavage was determined as 0.07.

Regarding UAACAGGGGGCCACAGCGGAAGCGUUCACGUCUCAGCCCCUGUCUGAUUCUGGUGAAUCUGCGAAUUCUGCGGUAUAUCAC [A18G G33U A45U U72G U80A], the self-cleavage was found to be 0.39.

For UAACAGGGGGCCACAGCGUAAGCGUUCACGUCGCAGCCCCGGUCAGAUUCUGGUGAGUCUGCGAAUUCUGCUGUAUAUCUC [A18G G19U U41G A57G], the self-cleavage was 0.09.

As to UAACAGGGGGCCACAGCGGAAGCUUUCACGUCGCAUCCCCUGUCAGAUUCCGGUGAAUCUGCGAACUCUGCUGUAUAUCUC [A18G G24U G36U U51C U66C], the self-cleavage was 0.28.

As to UAACAGGGGGCCACAGCGGAAGCGUUCACAUCGCGGCCCCUGUCAGAUUCUGGCGAAUCUGCGAAUUCCGCUGUAUAUCUC [A18G G30A A35G U54C U69C], the self-cleavage was found to be 0.1.

As to UAACAGGGGGCCACAGCGGAAGCGUUCACAUCGCAGCCCCUGUCAGAUUCUAGUGAAUCUGCGAACUCUGCUGUAUAUCUC [A18G G30A G52A U66C], the self-cleavage was 0.2.

In the case of UAACAGGGGGCCACAGCGGAAGCAUUCACGUCGCAGCCCCUGUCAGGUUCUGGUGAAUCUGCGAAUUCUGCUGAAUAUCUC [A18G G24A A47G U74A], the self-cleavage was found to be 0.28.

In the case of UAACAGGGGGCCACAGCGGAAGCAUUCACGUCGCAGCCCCUGUCAGGUUCUGGUGUAUCUGCGGAUUCUGCUGUAUAUCUC [A18G G24A A47G A56U A64G], the self-cleavage was determined as 0.22.

For the variant UAACAGGGGGCCACAGCGGAAGCGUUCACGUCGCAGCCCCUGUCAUAUUCUGGUGAAUCUGCGAAUUCCGCUGCAUAUCUC [A18G G46U U69C U74C], the self-cleavage is 0.46.

For the variant UAACAGGGGGCCACAGCGUAAGCGUUCACGUCGCAGCCCCCGUCAGAUUCAGGUGAAUCUGCGAAUUCUGCUGUAUAUCCC [A18G G19U U41C U51A U80C], the self-cleavage was determined as 0.22.

With UAACAGGGGGCCACAGCGGAAGCGUUCACGUCGCAGCCCCUGUCAUAUUCUGGUGAAUCUGCGAAUUCCGCUGUAUAUCUC [A18G G46U U69C], the self-cleavage came out at 0.26.

In the case of UAACAGGGGGCCACAGCGGAAGCGUUCACGUCGCAGCCCCUGUCAGAUUCUGGUAAAUCUGCGAAUCCUGCUGUAUAUCAC [A18G G55A U67C U80A], the self-cleavage was 0.07.

With UAACAGGGGGCCACAGCGGAAGCGUUCACAUCGCGGCCCCUGUCUGAUUCUGGCGAAUCUGCGAAUUCCGCUGUAUAUCUC [A18G G30A A35G A45U U54C U69C], the self-cleavage came out at 0.16.

Turning to UAACAGGGGGCCACAGCGGAAGCCUUCACGUCGCAGCCCCUGUCAGACUCUGGUGAAUCUGCGAAUUCUGCUGUAUAUCAC [A18G G24C U48C U80A], the self-cleavage was 0.07.

Turning to UAACAGGGGGCCACAGCGGAAGCGUUCACAUCGCAGCCCAUGUCAGAUUCCGGUGAAUCUGCGAAUUCUGCUGUAUAUCUC [A18G G30A C40A U51C], the self-cleavage was 0.13.

In the case of UAACAGGGGGCCACAGCGGAAGCGUUCACGUCGCAGCCCCUGUCAGAUUCUGGUCAAUCUGCGGAUUCUGCUGUAUAUCUC [A18G G55C A64G], the self-cleavage was determined as 0.19.

Take UAACAGGGGGCCACAGCGGAAGCGUUCACGUCACAGCCCCAGCUAGAUUCUGGCGAAUCUGCGAUUUCUGCUGUAUAUCUC [A18G G33A U41A U43C C44U U54C A65U]: the self-cleavage was determined as 0.1.

As to UAACAGGGGGCCACAGCGGAAACGCUCACGUCGCAGCCCCUGUCAGAUUCUGGUGAAUCUGCGAAUACUGCUGUAUAUCUC [A18G G22A U25C U67A], the self-cleavage was 0.39.

In the case of UAACAGGGGGCCACAGCGGAAGCGUUCACGUCGCAGCCCCUGUCAAAUUCUGGUGAAUCGGCGAAUUCCGCUGUAUAUCUC [A18G G46A U60G U69C], the self-cleavage amounted to 0.12.

On to UAACAGGGGGCCACAGCGGAAGCCUUCACGUCGCAGCCCCUGUCAGAUACUGGCGAACCCGCGAAUUCUGCUGUAUAUCUC [A18G G24C U49A U54C U58C U60C], for which the self-cleavage is 0.11.

In the case of UAACAGGGGGCCACAGCGGAAGCAUUCACGUCGCAGACCCUGUCAGAUUCUGGUGAAUCUGCGAAUACUGCUGUAUAUCUC [A18G G24A C37A U67A], the self-cleavage is 0.08.
